Whole data set: some 33,000 sequences, median “E-score (-0.5 to 0.5)” near -0.035, cut for the highest 2% near 0.34. This is one part of the list.
molecular target: T1, Mot3 (UniProt P54785); assay: PBM E-score (8-mer binding enrichment) (E-score (-0.5 to 0.5)); higher = stronger / more preferred TF binding; most listed sequences are background and not binding sites; settings: protein concentration: 200 nM; construct: GST-full length
T1 sequence: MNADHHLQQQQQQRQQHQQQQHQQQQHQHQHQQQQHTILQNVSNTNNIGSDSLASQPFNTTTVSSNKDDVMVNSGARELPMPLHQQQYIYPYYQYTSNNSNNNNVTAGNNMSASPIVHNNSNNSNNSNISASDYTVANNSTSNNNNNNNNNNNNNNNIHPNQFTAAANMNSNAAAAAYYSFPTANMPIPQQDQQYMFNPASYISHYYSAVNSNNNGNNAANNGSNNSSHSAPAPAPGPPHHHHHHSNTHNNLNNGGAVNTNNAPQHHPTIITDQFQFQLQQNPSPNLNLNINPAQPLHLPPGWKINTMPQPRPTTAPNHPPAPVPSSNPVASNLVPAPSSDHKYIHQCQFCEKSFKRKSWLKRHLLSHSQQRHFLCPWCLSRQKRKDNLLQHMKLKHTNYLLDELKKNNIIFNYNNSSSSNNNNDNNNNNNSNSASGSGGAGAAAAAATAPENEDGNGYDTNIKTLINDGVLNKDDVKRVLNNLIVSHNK
Outline: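 PURExpress in vitro transcription/translation supplied GST-tagged yeast transcription factors, either full-length or DNA-binding domain. Applied at about 100-200 nM to universal all-10-mer Agilent arrays double-stranded by primer extension, the bound protein was detected with fluorescent anti-GST. E-scores, modified Wilcoxon-Mann-Whitney statistics, were given by the Universal PBM Analysis Suite to ungapped eight-base words pooled with their reverse complements after masliner normalisation.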

Row | Sequence | PBM E-score
1 | CCTTAAGA | 0.0196
2 | GAACAGAA | 0.0149
3 | ATTCCCTC | -0.13
4 | AAGCGGGT | -0.0617
5 | GAGAGCGA | -0.214
6 | AATTCGTA | 0.11
7 | CCTTTGCC | 0.225
8 | CACACATG | 0.149
9 | GTGCTTTA | 0.0864
10 | ACATTAGA | -0.0584
11 | CCTAATAG | 0.046
12 | CGTTGCAG | -0.0727
13 | GGTGTGAA | 0.0833
14 | AATGGCGA | -0.102
15 | ACACCGTG | 0.217
16 | CCGGTTGC | -0.146
17 | GCGAAAAA | 0.0872
18 | AGACGGCC | -0.18
19 | AAATGGGA | -0.17
20 | CAAATTGG | 0.0771
21 | AGGGGTTA | -0.00811
22 | GCCTTCAC | 0.184
23 | AGACCTAC | -0.00972
24 | CATCTAAG | -0.197

Row | Sequence | PBM E-score
25 | CACTTTGG | -0.0925
26 | TCGATAAA | 0.0569
27 | CCAACCCG | -0.147
28 | GGCTTGAA | -0.0973
29 | CAAGATGG | -0.099
30 | CCACTGCA | -0.151
31 | GGTTTTAA | 0.171
32 | AGACCCTG | -0.144
33 | AACATGCA | 0.324
34 | CCTAGCTC | -0.106
35 | TAATCGAA | 0.0218
36 | GACTCGAA | -0.207
37 | TAATTCAA | 0.296
38 | ACGTAAGA | 0.192
39 | AATCAACA | 0.253
40 | CTTGAGCC | -0.276
41 | GAGCTCTA | -0.131
42 | CGCCTGGA | 0.0564
43 | GCGAGTCC | -0.287
44 | CTGTCGCC | -0.262
45 | ATCGGGCC | -0.258
46 | ACTACTAT | 0.0462
47 | GTCACACA | 0.113
48 | CTGTCAAA | 0.106

Row | Sequence | PBM E-score
49 | ATAGGCAT | 0.412
50 | CGTGGATC | -0.143
51 | GATGGCGC | -0.0871
52 | GCCTTCGA | 0.229
53 | GGCAATAC | 0.257
54 | CGAGACCG | -0.161
55 | GATTTGCA | -0.00568
56 | AACTCCTG | 0.14
57 | TATCTCAA | 0.125
58 | AACCGATA | 0.00264
59 | ACCATGGC | 0.0712
60 | CTTATCCA | 0.0699
61 | CCATCCCG | -0.237
62 | AAAAGATA | 0.0748
63 | CCGTGCGA | -0.0696
64 | CTGAAAGA | -0.0143
65 | TCTAGACA | 0.167
66 | ACATCTAG | 0.0465
67 | ATCAACAC | 0.289
68 | CTTCATAC | 0.0988
69 | AAGCAGAC | -0.0963
70 | AGTGGAAA | -0.0342
71 | AAGTAAAA | 0.0731
72 | TCCGGACA | -0.0589

Row | Sequence | PBM E-score
73 | TACCTATA | 0.316
74 | AATCCAAG | -0.202
75 | ACCTCTAT | -0.0993
76 | ACTGACTA | -0.0434
77 | AAGCCGAA | 0.0251
78 | GTTTAATA | 0.161
79 | AAAACCTA | 0.186
80 | CCGTACCC | -0.255
81 | CGCCGCCA | -0.239
82 | ACAAAAGC | 0.0563
83 | GTGCTCCA | -0.219
84 | CAAATGTG | 0.184
85 | AAGTGAAC | -0.0157
86 | AGGGAGAT | -0.343
87 | AACGCTGC | -0.044
88 | ATGATACC | 0.0407
89 | GCCACTAA | -0.238
90 | ACTCGGCA | -0.102
91 | GCTCGTAA | 0.148
92 | AAGTGTCA | -0.0296
93 | GCACACAA | 0.114
94 | CTATTAAG | -0.00367
